SMILES strings stand for the structures. The list shows a part of the results. Shown are side measurements of this screen, not its main read-out; they come without a call.

30 molecules from PubChem BioAssay AID1745853 (National Center for Advancing Translational Sciences (NCATS), 2022) can be followed below.

Common to all, as to test: Primary Screen for Target Class Profiling of Small Molecule Inhibitors of Methyltransferases
Experiment [1] has as its target Glycine N-methyltransferase (Homo sapiens) (UniProt Q14749). Particulars: purified enzyme, MTase-Glo SAH luminescence; measured here: GNMT inhibition; at 40 µM; stronger effect = lower value. The gist of the method:
(§1)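 Each enzyme was reacted with SAM and its substrate, with compounds tested once at 40 uM; SAH formed was read by MTase-Glo luminescence.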

Experiment [2] addresses Guanidinoacetate N-methyltransferase (Homo sapiens) (UniProt Q14353). To be noted: purified enzyme, MTase-Glo SAH luminescence; measured here: GAMT inhibition; at 40 µM; stronger effect = lower value. The gist of the method: as §1
For experiment [3], the target named is Histamine N-methyltransferase (Homo sapiens) (UniProt P50135). To be noted: purified enzyme, MTase-Glo SAH luminescence; measured here: HNMT inhibition; at 40 µM; stronger effect = lower value. In outline:
as §1

Experiment [4] concerns the target Nicotinamide N-methyltransferase (Homo sapiens) (UniProt P40261). Particulars: purified enzyme, MTase-Glo SAH luminescence; measured here: NNMT inhibition; at 40 µM; stronger effect = lower value. In outline: as §1
The target of experiment [5] is Phenylethanolamine N-methyltransferase (Homo sapiens) (UniProt P11086). To be noted: purified enzyme, MTase-Glo SAH luminescence; measured here: PNMT inhibition; at 40 µM; stronger effect = lower value. The gist of the method: as §1
% is set by controls: 0 for no effect and ±100 for the full control effect.

`CCc1noc(-c2cn(C3CCCN(C(=O)COc4cccc(C)c4)C3)nn2)n1` (stereo not given): the activity change, negative = inhibition was -3.17% in experiment [1]; -0.03% in experiment [2]; 0.283% in experiment [3]; -7.43% in experiment [4]; -2.06% in experiment [5].

Take `COc1ccccc1-c1cnc2n[nH]c(-c3ccc4c(c3)OCO4)c2n1`: the activity change, negative = inhibition was -32% in experiment [1]; -28% in experiment [2]; -31.9% in experiment [3]; -21% in experiment [4]; -14.2% in experiment [5].

In the case of `Cc1noc(C)c1Cc1ccc(C(=O)NC2CCc3nnc(C)n3CC2)o1` (stereo not given), the activity change, negative = inhibition is -4.58% in experiment [1]; -2.94% in experiment [2]; -1.77% in experiment [3]; -10.5% in experiment [4]; -4.54% in experiment [5].

For the molecule `O=C1NC2(CCCN(Cc3cncs3)C2)COc2ccccc21` (stereo not given), the activity change, negative = inhibition was -4.93% in experiment [1]; -6.95% in experiment [2]; -2.09% in experiment [3]; -13.6% in experiment [4]; -5.61% in experiment [5].

Take `COc1cccc(NCc2nnc(C(=O)N3CCC[C@@H]3c3cccc(F)c3)n2-c2ccccc2)c1`: the activity change, negative = inhibition was -4.59% in experiment [1]; -1.31% in experiment [2]; -1.95% in experiment [3]; -11.2% in experiment [4]; 7.43% in experiment [5].

As to `CCCn1c(=O)c2ccc(C(=O)NC(C)CC)cc2n2c(=O)n(CC(=O)Nc3ccc(F)cc3)nc12` (stereo not given), the activity change, negative = inhibition in experiment [1] was 1.34%; in experiment [2], 0%; in experiment [3] it was 1.04%; in experiment [4] it was -4.06%; in experiment [5], 4.2%.

`CC1(C(=O)NC2CCCCCCC2)Cn2c(cc3occc32)C(=O)N1Cc1cccc(Cl)c1` (stereo not given): the activity change, negative = inhibition in experiment [1] is -3.64%; in experiment [2], 3.78%; in experiment [3] it was -0.157%; in experiment [4] it was -3.28%; in experiment [5], -1.51%.

With `CC1(C(=O)NC2CCCCCC2)Cn2c(ccc2-c2ccco2)C(=O)N1Cc1ccccn1` (stereo not given), the activity change, negative = inhibition in experiment [1] is -10.4%; in experiment [2], 0%; in experiment [3], 2.16%; in experiment [4] it was -11.7%; in experiment [5], 0.499%.

Regarding `CCCn1c(=O)c2ccc(C(=O)NC(C)C)cc2n2c(SCC(=O)NCc3ccccc3)nnc12`, the activity change, negative = inhibition was found to be 3.61% in experiment [1]; 0% in experiment [2]; 2.41% in experiment [3]; 0.948% in experiment [4]; 3.02% in experiment [5].

For `CN1CCOc2c(C(=O)NCCc3cnc[nH]3)cc(-c3ccccc3F)cc21`, the activity change, negative = inhibition was -24% in experiment [1]; -7.4% in experiment [2]; -24.7% in experiment [3]; -31.5% in experiment [4]; -1.76% in experiment [5].

Turning to `COc1ccccc1CN1C(=O)c2cc(-c3ccccc3)nn2CC1(C)C(=O)NCc1ccccc1` (stereo not given), the activity change, negative = inhibition came out at 5.59% in experiment [1]; 4.2% in experiment [2]; 7.17% in experiment [3]; 5.42% in experiment [4]; 0.467% in experiment [5].

As for `CCCCNC(=O)c1ncn2c1C(=O)N(CCC)C(C)(C(=O)NCc1ccc(C)cc1)C2` (stereo not given), the activity change, negative = inhibition in experiment [1] amounted to 2.52%; in experiment [2], 0%; in experiment [3], 4.98%; in experiment [4], 6.61%; in experiment [5], 4.11%.

As to `COc1cc(OC)c(NC(=O)N2CCn3cccc3C2C(C)C)cc1Cl` (stereo not given), the activity change, negative = inhibition in experiment [1] was 15.8%; in experiment [2] it was 0%; in experiment [3], 8.26%; in experiment [4] it was 9%; in experiment [5] it was 9.87%.

Take `CC(C)CNC(=O)c1ccc2c(=O)n(C)c3nn(Cc4ccc(F)cc4)c(=O)n3c2c1`: the activity change, negative = inhibition was -8.08% in experiment [1]; 3.28% in experiment [2]; 0.752% in experiment [3]; -1.25% in experiment [4]; 2.06% in experiment [5].

For the molecule `COCc1cc(=O)n(CC(=O)NCc2ccc(OC)cc2)c(N2CCOCC2)n1`, the activity change, negative = inhibition is -3.5% in experiment [1]; -2.56% in experiment [2]; -3.36% in experiment [3]; -5.6% in experiment [4]; 1.68% in experiment [5].

On to `Cc1cc(C)cc(N2C(=O)c3cc(-c4ccco4)nn3CC2(C)C(=O)NC2CCCCC2)c1` (stereo not given), for which the activity change, negative = inhibition in experiment [1] is -10.3%; in experiment [2], -3.9%; in experiment [3], 0.219%; in experiment [4] it was -3.81%; in experiment [5], -1.24%.

Regarding `O=C(O)[C@H]1Cc2ccccc2CN1`, the activity change, negative = inhibition in experiment [1] was 2.44%; in experiment [2] it was 6.42%; in experiment [3], 8.07%; in experiment [4], -6.12%; in experiment [5] it was 4.61%.

Regarding `Cn1c(=O)c2ccc(C(=O)NC3CCCCC3)cc2n2c(=O)n(CC(=O)NCc3ccc(F)cc3)nc12`, the activity change, negative = inhibition in experiment [1] came to 7.21%; in experiment [2], 0.89%; in experiment [3], 9.37%; in experiment [4], 5.5%; in experiment [5], 8.36%.

In the case of `C=C(C)C(=O)O[C@H]1[C@H]2C(=C)C(=O)O[C@@H]2C[C@@H](C)[C@@H]2O[C@@H]2C(=O)[C@](C)(O)[C@@H]1OC(C)=O`, the activity change, negative = inhibition was -0.312% in experiment [1]; 4.04% in experiment [2]; 3.94% in experiment [3]; -8.52% in experiment [4]; 0.844% in experiment [5].

As to `CC1CCN(S(=O)(=O)c2ccc3c(ccn3CC(=O)NCCC3=CCCCC3)c2)CC1`, the activity change, negative = inhibition stood at 5.61% in experiment [1]; 4.02% in experiment [2]; 6.85% in experiment [3]; 2.81% in experiment [4]; 0.02% in experiment [5].

For `Cn1nccc1C(=O)N1CCC(c2nc(CCOCC3CCCC3)no2)C1` (stereo not given), the activity change, negative = inhibition in experiment [1] is 0.337%; in experiment [2], -3.87%; in experiment [3], 0.934%; in experiment [4], 2.66%; in experiment [5], -0.379%.

In the case of `CC(C)CNc1ccc2c(n1)C(C)(C(=O)NCc1cccnc1)CN(Cc1ccccc1)C2` (stereo not given), the activity change, negative = inhibition in experiment [1] is -2.51%; in experiment [2] it was 0.944%; in experiment [3], -10.9%; in experiment [4], -4.7%; in experiment [5], 0.326%.

In the case of `CN1CCN(C2=Nc3ccccc3Nc3ccc(O)cc32)CC1`, the activity change, negative = inhibition is 0.641% in experiment [1]; 1.99% in experiment [2]; 7.29% in experiment [3]; -14.3% in experiment [4]; 2.04% in experiment [5].

For the molecule `O=C(N1CCCCCC1CN1CCOCC1)C1(c2ccccc2)CC1` (stereo not given), the activity change, negative = inhibition is -8.03% in experiment [1]; -7.68% in experiment [2]; -4.21% in experiment [3]; -8.84% in experiment [4]; 0.719% in experiment [5].

For the molecule `O=C(OC[C@H]1O[C@@H](Oc2ccccc2CO)[C@H](O)[C@@H](O)[C@@H]1O)c1ccccc1`, the activity change, negative = inhibition in experiment [1] is -0.62%; in experiment [2], -0.636%; in experiment [3] it was 8.87%; in experiment [4], -13.3%; in experiment [5] it was -7.36%.

Regarding `Cc1ccc(NC(=O)Cn2nc3n(CCC(C)C)c(=O)c4ccc(C(=O)NC(C)C)cc4n3c2=O)cc1`, the activity change, negative = inhibition in experiment [1] is 9.93%; in experiment [2], 1.32%; in experiment [3], 10.2%; in experiment [4] it was 10.1%; in experiment [5] it was 6.12%.

As to `CCC(C)NC(=O)c1ccc2c(=O)n(C)c3nn(CC(=O)NC4CCCC4)c(=O)n3c2c1` (stereo not given), the activity change, negative = inhibition in experiment [1] is 6.49%; in experiment [2], 6.34%; in experiment [3] it was 9.16%; in experiment [4], 2.06%; in experiment [5] it was 3.61%.

For the molecule `Fc1ccc(-c2nc(-c3c(F)cccc3F)[nH]c2-c2ccncc2)cc1`, the activity change, negative = inhibition was -35% in experiment [1]; -12.2% in experiment [2]; -26% in experiment [3]; -34.7% in experiment [4]; -16.9% in experiment [5].

For the molecule `CCCn1c(=O)c2[nH]c(-c3cnn(Cc4cccc(C(F)(F)F)c4)c3)nc2n(CC)c1=O`, the activity change, negative = inhibition in experiment [1] is -1.46%; in experiment [2], -1.28%; in experiment [3], 5.64%; in experiment [4], -17.1%; in experiment [5] it was -0.122%.

Consider `CCC(CC)C(c1ccc(Nc2nc3ccccc3s2)cc1)n1cncn1` (stereo not given), for which the activity change, negative = inhibition was -10.2% in experiment [1]; -41.7% in experiment [2]; 1.31% in experiment [3]; -59.3% in experiment [4]; -4.21% in experiment [5].
